Results are given in words; binding and its absence hold for the method and conditions named. In cells and extracts the contact can be indirect. Some binding calls cover weakened binding; strength is not graded here. Tags and fused reporters may be left off the sequences shown.
Columns and labels:
[1] = biological target: GST–KHC(815-955) (rat) (UniProt P56536); assay: pull-down; GST–KHC tail fusion (0.25 nmol) on glutathione–Sepharose beads incubated 1.5 h with 293T cell extract expressing GFP fusion proteins; 25 mM HEPES pH 7.5, 150 mM NaCl, 0.1% NP-40, Triton X-100; western blot; only the target purified
[2] = biological target: GST–KHC(815-955) (rat) (UniProt P56536); assay: pull-down; competition: GST–KHC(815-955) pulldown of GFP–SKIP(1-310) from 293T cell extract to which purified recombinant KLC2^TPR was added at increasing concentrations; the blocked pair; only the target purified
[3] = biological target: GST–Kif5B C-terminal tail fragment (814–963) (human) (UniProt P33176); assay: pull-down; GST–KHC tail fusion (0.25 nmol) on glutathione–Sepharose beads incubated 1.5 h with 293T cell extract expressing GFP fusion proteins; 25 mM HEPES pH 7.5, 150 mM NaCl, 0.1% NP-40, Triton X-100; western blot; only the target purified

Amino acid sequences for entries named in this document (tags omitted). Residues count along the entry.
UniProt P56536, residues 815-955: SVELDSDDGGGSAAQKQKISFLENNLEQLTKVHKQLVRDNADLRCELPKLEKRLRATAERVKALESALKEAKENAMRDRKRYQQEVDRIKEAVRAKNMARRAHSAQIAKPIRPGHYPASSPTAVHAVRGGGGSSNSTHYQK
UniProt P33176, residues 814-963: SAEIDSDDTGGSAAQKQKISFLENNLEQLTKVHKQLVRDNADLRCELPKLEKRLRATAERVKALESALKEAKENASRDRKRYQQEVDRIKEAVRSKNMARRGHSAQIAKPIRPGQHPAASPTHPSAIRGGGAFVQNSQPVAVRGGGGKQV

binding [1] | binding [2] | binding [3] | Binder
binds |  |  | GFP–SKIP(1-310) ΔEx7 (domain or fragment, UniProt Q8IWE5) MEPGEVKDRILENISLSVKKLQSYFAACEDEIPAIRNHDKVLQRLCEHLDHALLYGLQDLSSGYWVLVVHFTRREAIKQIEVLQHVATNLGRSRAWLYLALNENSLESYLRLFQENLGLLHKYYVKNALVCSHDHLTLFLTLVSGLEFIRFELDLDAPYLDLAPYMPDYYKPQYLLDFEDRLPSSVHGSDSLSLNSFNSVTSTNLEWDDSAIAPSSEDGDLTDTVSGPRSTASDLTSSKASTRSPTQRQNPFNEEPAETVSSSDTTPVHTTSQEKEEAQALDPPDACTEL
binds | binds | binds | GFP–SKIP(1-310) (domain or fragment, UniProt Q8IWE5 1-310) MEPGEVKDRILENISLSVKKLQSYFAACEDEIPAIRNHDKVLQRLCEHLDHALLYGLQDLSSGYWVLVVHFTRREAIKQIEVLQHVATNLGRSRAWLYLALNENSLESYLRLFQENLGLLHKYYVKNALVCSHDHLTLFLTLVSGLEFIRFELDLDAPYLDLAPYMPDYYKPQYLLDFEDRLPSSVHGSDSLSLNSFNSVTSTNLEWDDSAIAPSSEDYDFGDVFPAVPSVPSTDWEDGDLTDTVSGPRSTASDLTSSKASTRSPTQRQNPFNEEPAETVSSSDTTPVHTTSQEKEEAQALDPPDACTEL
binds |  |  | GFP–SKIP(1-260) (domain or fragment, UniProt Q8IWE5 1-260) MEPGEVKDRILENISLSVKKLQSYFAACEDEIPAIRNHDKVLQRLCEHLDHALLYGLQDLSSGYWVLVVHFTRREAIKQIEVLQHVATNLGRSRAWLYLALNENSLESYLRLFQENLGLLHKYYVKNALVCSHDHLTLFLTLVSGLEFIRFELDLDAPYLDLAPYMPDYYKPQYLLDFEDRLPSSVHGSDSLSLNSFNSVTSTNLEWDDSAIAPSSEDYDFGDVFPAVPSVPSTDWEDGDLTDTVSGPRSTASDLTSSKA

The remaining lines, values behind:

Binder | binding [1] | binding [2] | binding [3]
GFP–CSTN1–SKIP(long) (protein, UniProt O94985 881-981; Q8IWE5 215-260) RIRAAHRRTMRDQDTGKENEMDWDDSALTITVNPMETYEDQHSSEEEEEEEEEEESEDGEEEDDITSAESESSEEEEGEQGDPQNATRQQQLEWDDSTLSYSSEDYDFGDVFPAVPSVPSTDWEDGDLTDTVSGPRSTASDLTSSKA | binds |  | 
GFP–SKIP(1-243) (domain or fragment, UniProt Q8IWE5 1-243) MEPGEVKDRILENISLSVKKLQSYFAACEDEIPAIRNHDKVLQRLCEHLDHALLYGLQDLSSGYWVLVVHFTRREAIKQIEVLQHVATNLGRSRAWLYLALNENSLESYLRLFQENLGLLHKYYVKNALVCSHDHLTLFLTLVSGLEFIRFELDLDAPYLDLAPYMPDYYKPQYLLDFEDRLPSSVHGSDSLSLNSFNSVTSTNLEWDDSAIAPSSEDYDFGDVFPAVPSVPSTDWEDGDLTD | binds |  | 
GFP–SKIP(1-216) (domain or fragment, UniProt Q8IWE5 1-216) MEPGEVKDRILENISLSVKKLQSYFAACEDEIPAIRNHDKVLQRLCEHLDHALLYGLQDLSSGYWVLVVHFTRREAIKQIEVLQHVATNLGRSRAWLYLALNENSLESYLRLFQENLGLLHKYYVKNALVCSHDHLTLFLTLVSGLEFIRFELDLDAPYLDLAPYMPDYYKPQYLLDFEDRLPSSVHGSDSLSLNSFNSVTSTNLEWDDSAIAPSS | no binding |  | 
GFP–CSTN1–SKIP(short) (protein, UniProt O94985 881-981; Q8IWE5 215-241) RIRAAHRRTMRDQDTGKENEMDWDDSALTITVNPMETYEDQHSSEEEEEEEEEEESEDGEEEDDITSAESESSEEEEGEQGDPQNATRQQQLEWDDSTLSYSSEDYDFGDVFPAVPSVPSTDWEDGDL | binds |  | 

From article PMC5450233
